Test results from PubChem BioAssay AID624418 (National Center for Advancing Translational Sciences (NCATS), 2012).
The campaign covered roughly 410,000 compounds. About 530 (0.13%) were called active. This list was built around the results that the source calls inconclusive (neither active nor inactive); the mix of calls is not that of the screen. Calls follow the shape of the dose curve; as a rule, active = well fitted inhibition curve with a large enough effect; inconclusive = small, poorly fitted or top-dose-only effect, or another doubt; inactive = no such curve, though single readings can be large or run the other way. A potency beside an inconclusive call is a rough fit, not a confirmed value.
% is scaled to controls: 0 for no effect and ±100 for the full control effect; potency is read from the fitted curve at half-maximal effect.

Test: qHTS of GLP-1 Receptor Inverse Agonists: Cytotox Screen
Details: HEK293 cAMP-luciferase reporter cells, luminescence, 24 h; activity change, negative = inhibition: at 38.3 µM (top of the series) unless noted
Method in brief: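 1536-well qHTS counterscreen of the MLSMR; 200 cells/uL, 12 h pre-incubation, 23 nL cpd, 24 h at 37 deg C 5% CO2, luciferase detection reagent, 12 min RT, luminescence. Inhibition = undesired.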
In the case of `COc1ccc([N+](=O)[O-])cc1NC(=O)Nc1cccc(Cl)c1`, the Potency was inconclusive: 10 µM [inhibitor, partial curve, poor fit]. For `C=CCn1ccc(=NC=C(C#N)C#N)c2ccccc21`, the Potency was inconclusive: 3.16 µM [inhibitor, full curve, poor fit]. For `CCOC(=O)c1ccc(Nc2nc3nonc3nc2Nc2cccc(C)c2C)cc1`, the Potency was inconclusive: 5.62 µM [inhibitor, partial curve]. In the case of `COc1ccc(-c2nc3c4ccccc4ccn3c2CN2CCCCC2)cc1`, the Potency was “inactive”. For `N#CCCn1cc(/C=C2\NC(=S)N(c3ccccc3)C2=O)c(-c2ccc(F)cc2)n1`, the Potency was inconclusive: 7.94 µM [inhibitor, partial curve, poor fit]. In the case of `CCN(CCCNC(=O)c1ccc(Sc2ccc(F)cc2)c(NC(C)=O)c1)c1ccccc1`, the Potency was “inactive”. With `O=c1[nH][nH]c(=S)n1C1CCCCC1` the Potency was “inactive”. In the case of `CCOC(=O)c1nc2nc(-c3cccs3)cc(C(F)(F)F)n2n1`, the Potency was “inactive”. In the case of `O=C(CNc1ccc(F)cc1)N/N=C/c1c(O)ccc2ccccc12`, the Potency was inconclusive: 3.98 µM [inhibitor, full curve]. With `O=C(c1ccc(Cl)cc1)N1CCN(c2ccc([N+](=O)[O-])c(NCc3cccnc3)c2)CC1` the Potency was inconclusive: 10 µM [inhibitor, single point]. In the case of `N=C1C=CC=C2C1=NC1(CCCCC1)N2O`, the Potency was inconclusive: 28.2 µM [inhibitor, single point]. For `COc1ccc(C(CNC(=O)C(C)(C)Oc2ccc(Cl)cc2)N2CCCCC2)cc1` (stereo not drawn), the Potency was inconclusive: 11.2 µM [inhibitor, single point]. In the case of `Cc1nn(CCOc2ccccc2)c(=O)n1-c1ccccc1F`, the Potency was inconclusive: 0.501 µM [inhibitor, full curve, poor fit]. For `O=C(Cc1ccc(F)cc1)Nc1ccccc1N1CCCC1`, the Potency was “inactive”. With `C=CCNC(=S)N/N=C(\C)c1ccc(-n2ccnc2)cc1` the Potency was inconclusive: 28.2 µM [inhibitor, single point]. In the case of `COc1ccc(CNC(=O)C2CC(c3ccc(OC)cc3)=NO2)cc1` (stereo not drawn), the Potency was inconclusive: 4.47 µM [inhibitor, partial curve, poor fit]. For `OC(CN1CCN(C(c2ccccc2)c2ccccc2)CC1)c1ccc(Br)cc1` (stereo not drawn), the Potency was “inactive”. For `O=C(CCCn1c(=O)c2cccn2c2cccnc21)Nc1ccccc1Br`, the Potency was “inactive”. For `CCN(CC)C(=O)C1=C(C)N(Cc2ccc(C(C)(C)C)cc2)C(=O)C(CC(=O)NCc2cccc3ccccc23)C1` (stereo not drawn), the Potency was inconclusive: 28.2 µM [inhibitor, single point]. With `Cc1ccc(CNC(=O)Cn2cc(C(=O)c3ccc(Cl)cc3)c(=O)c3ccc(C)nc32)cc1` the Potency was “inactive”. With `CCCCCCCC(=O)Nc1ccc(C(=O)N/N=C/c2cccc([N+](=O)[O-])c2)cc1` the Potency was “inactive”. For `C/C(=N\NC(=O)c1cccc(Br)c1)c1ccccn1`, the Potency was inconclusive: 0.501 µM [inhibitor, full curve, poor fit]. In the case of `CN=Cc1cc(-c2ccccc2)sc1O`, the Potency was inconclusive: 10 µM [inhibitor, partial curve, poor fit]. With `Cc1onc(-c2ccccc2)c1CNC(=O)Nc1ccc(C(F)(F)F)cc1` the Potency was inconclusive: 10 µM [inhibitor, single point]. With `COc1ccc(CN(CCC#N)C(=S)NC(=O)c2ccccc2)cc1` the Potency was inconclusive: 3.55 µM [inhibitor, full curve]. In the case of `COc1ccc(OC)c(C(c2nnnn2Cc2ccccc2)N2CCN(C3CCCCC3)CC2)c1` (stereo not drawn), the Potency was inconclusive: 20 µM [inhibitor, single point]. For `O=c1cc(-c2ccccc2)[nH]c2ccccc12`, the Potency was inconclusive: 0.794 µM [inhibitor, full curve, poor fit]. With `CCn1c(-c2ccc(OC)c(OC)c2)n[nH]c1=S` the Potency was inconclusive: 28.2 µM [inhibitor, single point]. With `O=C(OCC1CCCO1)c1ccc2c(c1)N(Cc1ccccc1F)C(=O)c1ccccc1S2(=O)=O` (stereo not drawn) the Potency was “inactive”. In the case of `Cc1[nH]c2ccccc2c1C(=O)CN1CC(C)OC(C)C1` (stereo not drawn), the Potency was “inactive”. In the case of `c1cc2c(cc1-c1cnc3n1CCC3)OCCO2`, the Potency was inconclusive: 5.01 µM [inhibitor, full curve]. In the case of `COc1cccc(C(=O)NC(=S)N2c3ccccc3CC2C)c1OC` (stereo not drawn), the Potency was inconclusive: 12.6 µM [inhibitor, single point]. For `O=[N+]([O-])c1cnc(Sc2ccncn2)s1`, the Potency was active: 2.82 µM. For `Cc1c(NC(=O)CN2CCC(C(N)=O)CC2)cccc1[N+](=O)[O-]`, the Potency was inconclusive: 0.501 µM [inhibitor, full curve, poor fit]. With `O=C(Oc1ccc2c(c1)OCO2)c1cc2c(s1)CCC2` the Potency was inconclusive: 11.2 µM [inhibitor, partial curve, poor fit]. For `Nc1ccccc1C(=O)NNc1c2ccccc2nc2ccccc12`, the Potency was inconclusive: 14.1 µM [inhibitor, single point]. For `CCCCCCC(=O)Nc1nc(C)c(-c2csc(Nc3cc(OC)ccc3OC)n2)s1`, the Potency was “inactive”. In the case of `CCOC(=O)c1nnsc1Nc1ccc(C)c(C)c1`, the Potency was “inactive”. For `COc1ccc(Nc2cc(C)nc3ccc(OC)cc23)cc1`, the Potency was inconclusive: 11.2 µM [inhibitor, single point]. With `O=C(Nc1ncc([N+](=O)[O-])s1)C1COc2ccccc2O1` (stereo not drawn) the Potency was inconclusive: 11.2 µM [inhibitor, single point]. With `CN(Cc1nccs1)C(=O)c1ccc(OC2CCN(CCc3ccccc3)CC2)cc1` the Potency was inconclusive: 28.2 µM [inhibitor, single point]. For `COc1ccc(-c2cc(-c3cccs3)c(C#N)c(SCC(=O)NCc3ccco3)n2)cc1`, the Potency was “inactive”. For `Cc1nc(N2CCOCC2)[nH]c(=O)c1[N+](=O)[O-]`, the Potency was inconclusive: 28.2 µM [inhibitor, single point]. With `O=C(Nc1ccc(N2CCCCC2)cc1)c1ccc([N+](=O)[O-])o1` the Potency was inconclusive: 1.41 µM [inhibitor, full curve, poor fit]. With `O=C(CCc1ccccc1)Nc1ccccc1[N+](=O)[O-]` the activity change, negative = inhibition was inactive: -2.9% [at 1.53 µM]. In the case of `CC1CCC2(CC1)NC(=O)N(CC(=O)N1CCOCC1)C2=O` (stereo not drawn), the Potency was inconclusive: 10 µM [inhibitor, partial curve, poor fit]. In the case of `COc1ccc(-c2cc3ccccc3oc2=O)cc1NC(=O)c1cccnc1`, the Potency was inconclusive: 11.2 µM [inhibitor, partial curve, poor fit]. In the case of `CC(C)(C)c1nn(-c2ccccc2)c2[nH]c(=O)c(CNc3ccc4c(c3)OCCO4)cc12`, the Potency was “inactive”. For `CCOC(=O)C1CCN(C(c2cccnc2)c2c(NC(=O)c3ccco3)sc(C)c2C)CC1` (stereo not drawn), the Potency was “inactive”. With `CCc1ccc2c(c1)C1(C(=O)N2)N2CCCC2C(C(=O)c2ccc3ccccc3c2)C12C(=O)Nc1ccccc12` (stereo not drawn) the Potency was inconclusive: 11.2 µM [inhibitor, partial curve, poor fit]. With `Cc1cc(O)c(CN2CCN(c3ccc(F)cc3)CC2)c2oc(=O)cc(C)c12` the Potency was “inactive”. In the case of `COc1ccc(Br)cc1CNC(=O)c1ccc(-n2c(C)cc3c2CCC(C)C3)cc1` (stereo not drawn), the Potency was “inactive”. With `C[C@H](CO)N1C[C@H](C)[C@@H](CN(C)C(=O)Nc2ccc3c(c2)OCO3)Oc2c(NC(=O)c3ccncc3)cccc2C1=O` the Potency was inconclusive: 31.6 µM [inhibitor, single point]. In the case of `CCn1c(-c2ccc(-c3ccccc3)cc2)c[nH]c1=S`, the Potency was inconclusive: 5.62 µM [inhibitor, partial curve, poor fit]. With `CCOC(=S)SCC(=O)Nc1nc(-c2ccc(Br)cc2)cs1` the Potency was active: 5.01 µM. With `C/C(=N\NC(=S)NC1CCCCC1)c1ccc(OC(F)F)cc1OC(F)F` the Potency was inconclusive: 7.08 µM [inhibitor, partial curve, poor fit]. With `CCC(C)c1ccc(S(=O)(=O)N2CCN(C(C)C(=O)NC3CCCC3)CC2)cc1` (stereo not drawn) the Potency was inconclusive: 31.6 µM [inhibitor, single point]. In the case of `COC(=O)Cc1ccc(NC(=O)c2ccc(C(C)(C)C)cc2)cc1`, the Potency was inconclusive: 15.8 µM [inhibitor, partial curve, poor fit]. With `COC(=O)C1=CN(Cc2ccc(F)cc2)C=C(C(=O)OC)C1c1cc(OC)c(OC)c(OC)c1` the Potency was “inactive”. With `CCOC(=O)c1cnc(-n2nc(C)cc2C)nc1N(C)C` the Potency was inconclusive: 28.2 µM [inhibitor, single point]. For `COc1ccc(-c2csc(NC(=O)c3c(OC)cccc3OC)n2)cc1`, the Potency was “inactive”. For `COC(=O)c1ccc(NC(=O)c2c(NCc3ccc(OC)c(OC)c3)sc3c2CCCC3)cc1`, the Potency was “inactive”. For `CC(C)C[C@H](NC(=O)OC(C)(C)C)C(=O)N[C@@H](CO)[C@H](O)[C@@H]1C[C@@H]1C(=O)N(C)C`, the Potency was inconclusive: 28.2 µM [inhibitor, single point]. In the case of `CC(=O)n1cc([C@@H]2C=C(C(=O)N3CCN(Cc4ccc5c(c4)OCO5)CC3)O[C@H](OCCCCO)C2)c2ccccc21`, the Potency was inconclusive: 3.16 µM [inhibitor, full curve, poor fit]. In the case of `CN(c1ccc([N+](=O)[O-])cc1C(N)=O)C1CCCCC1`, the Potency was inconclusive: 11.2 µM [inhibitor, partial curve, poor fit]. For `COC(=O)/C(C#N)=C/c1c(N2CCN(c3ccc(OC)cc3)CC2)nc2c(C)cccn2c1=O`, the Potency was inconclusive: 14.1 µM [inhibitor, partial curve, poor fit]. With `COc1ccc(/C=N/NC(=O)c2cc(O)c(O)c(O)c2)cc1Cn1cc([N+](=O)[O-])cn1` the Potency was “inactive”. In the case of `COc1cccc(/C=C2\SC(=O)N(CCC(=O)N3CCCCC3CCO)C2=O)c1` (stereo not drawn), the Potency was inconclusive: 10 µM [inhibitor, single point].
